Assay results reported in article PMC12136788.
The list shows a part of the results.

T1: UNK ZnF1-6 (called full-length) (human, UniProt Q9C0B0 30-357)
T1 sequence: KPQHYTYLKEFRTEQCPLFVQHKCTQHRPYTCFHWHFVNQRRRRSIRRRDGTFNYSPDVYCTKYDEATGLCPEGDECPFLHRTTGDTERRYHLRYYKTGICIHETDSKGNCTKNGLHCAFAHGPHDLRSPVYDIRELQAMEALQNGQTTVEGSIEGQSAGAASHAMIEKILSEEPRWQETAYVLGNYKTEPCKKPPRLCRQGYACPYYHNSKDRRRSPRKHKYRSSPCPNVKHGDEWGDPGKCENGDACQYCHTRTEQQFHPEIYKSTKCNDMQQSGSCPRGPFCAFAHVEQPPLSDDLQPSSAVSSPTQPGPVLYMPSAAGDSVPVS

B1: ENSG00000126524:stop:overlap|stop_codon|ENSG00000126524|stop_codon|NA|stop_codon (ssRNA)
RNA: GGGAGUUCUACAGUCCGACGAUCAGCUCAAGCCACUGAUCAAGGUCAUAGAAAGUGAAGAUUAUGGCCAACAGUUAGAAAUCUAGAGACGGAGUUUCACCGUGUUAGCCAGGACGGUCUUGAUCUCCUGACCUCAUGAUCCACCAACAGAGGAUUGAGCAUCA
B2: ENSG00000170113:stop:overlap|stop_codon|ENSG00000170113|stop_codon|NA|stop_codon (ssRNA)
RNA: GGGAGUUCUACAGUCCGACGAUCUGUUCAAAGAGUUCAAUUUCAACCUUGGGGAGAUGAACAAAUCUAAUAUGAAAACAGACUAGAUUGCAAUAGGAGCUUGGAUGGUUCGAGGAAUAGGCAUUGGAGGUGGUUUCUGGCCGUCAACAGAGGAUUGAGCAUCA
B3: chr12:7652437:7652835:-|CDS|ENSG00000111701|control|control|control (ssRNA)
RNA: GGGAGUUCUACAGUCCGACGAUCCUCCCAGGCUAUUAGAGAGUUUCUGAGUCGGCACCCUGGUGUGACUCUAGUGAUCUACGUAGCUCGGCUUUUUUGGCACAUGGAUCAACAAAAUCGGCAAGGUCUCAGGGACCUUGUUAACAACAGAGGAUUGAGCAUCA
B4: chr11:61403655:61403707:-|3pUTR|ENSG00000149532|msi1_unk|FALSE|overlapping (ssRNA)
RNA: GGGAGUUCUACAGUCCGACGAUCUGAAGUAACCAGGAGGAAUGGGGAAAGAAGCAAGUUGGGCAGGAUAUGGCCUACUUCCAUAGGCUUUUCUUUUUUCAGGUUUGAUGUAAGCAUGGGCUUACAUCCCCCAGGUACAUACUUCAACAGAGGAUUGAGCAUCA
B5: chr17:4948375:4948459:-|5pUTR_CDS|ENSG00000108518|msi1_unk|total|mutant (ssRNA)
RNA: GGGAGUUCUACAGUCCGACGAUCAGCCGAGGCAGCUCGAGCCCAGUCCGCGGCCCCAGCAGCAGCGCCGAGAGCAGCCCCAGCCGCAGCGCCAUGGCCGGGUGGAACGCCUACAUCGACAACCUCAUGGCGGACGGGACCUGUCAACAGAGGAUUGAGCAUCA
B6: chr17:1004907:1005008:-|3pUTR|ENSG00000159842|msi1|FALSE|unique (ssRNA)
RNA: GGGAGUUCUACAGUCCGACGAUCAAGAGGGGCCAGGCUUCCUGGAGGGUGACUGAUGUGGCCGAAGCAGGUGUCCAGGCAGGUAGGCUGCAGCCAGGAGCUCCCUGGCACCGCAGGACCUCGUGGUACUCUUGCCUUAGAUUUCAACAGAGGAUUGAGCAUCA
B7: chr12:53253816:53253925:+|CDS|ENSG00000182544|unk|FALSE|unique (ssRNA)
RNA: GGGAGUUCUACAGUCCGACGAUCUCUCUUCAUGUUGACUUUCUCUACCAGCCCAGGCCAGGAGAGUCCGGUGGAGUCCUUCAUAGCCUUUCUACUUAUUGAGUUGGCUUGUGGAUUAUACUUUCCCAGCAUGAGCUUCCUACGCAACAGAGGAUUGAGCAUCA
B8: ENSG00000136451:be:win_1851|3pUTR|ENSG00000136451|bound_else_gene|NA|bound_elsewhere_windowed (ssRNA)
RNA: GGGAGUUCUACAGUCCGACGAUCUCAUAAGUAGAACCCACUUCAAAAUAAAAAAACAGCAUUACUAUUUCUAAUCCCAAGGAAUCACUUUAUUGUAAACACUAGCAGAACUCUUCUCCCUAUACAAGGUGGAUGGCUGAUUUUCAACAGAGGAUUGAGCAUCA
B9: chr6:158982484:158982688:-|CDS|ENSG00000130363|control|control|control (ssRNA)
RNA: GGGAGUUCUACAGUCCGACGAUCGAAGAAGAAGAGCUGGCUAACCUGCGGGCCAGUCAGCGUGAGUAUGAAGAACUACGGAAUAGUGAACGUGCUGAAGUUCAACGACUUGAAGAGCAAGAGAGGCGACACCGAGAAGAAAAACAACAGAGGAUUGAGCAUCA
B10: chr16:70157515:70157662:+|3pUTR|ENSG00000090857|msi1|FALSE|unique (ssRNA)
RNA: GGGAGUUCUACAGUCCGACGAUCCUCCCUAUAAUUUUCUUCAUCUCUUGCUAAUCUCUAUAAUAAGGUUGCUUUUUCUUUCUUAGUUGAGUAAACAAGUAAGCCACAGUGUUUGAAAGGGAAAAACCAUAUUGCCUUGUGUGUCAACAGAGGAUUGAGCAUCA
B11: chr11:47420279:47420382:-|CDS|ENSG00000165916|unk|FALSE|unique (ssRNA)
RNA: GGGAGUUCUACAGUCCGACGAUCAAACAGGGUGGACAUCCUGGACCCCGCCCUCCUCCGCUCGGGCCGCCUUGACCGCAAGAUAGAGUUCCCGAUGCCCAAUGAGGAGGCCCGGGCCAGAAUCAUGCAGAUCCACUCCCGAAACAACAGAGGAUUGAGCAUCA
B12: chr15:48342169:48342270:+|3pUTR|ENSG00000128951|msi1_unk|total|mutant (ssRNA)
RNA: GGGAGUUCUACAGUCCGACGAUCAAAAAAAAAAAAAGUUUUUGCUUCAAGUGUUUUGGUGUUUUGCACUUCUGUAAACUUACCCGCUUUACCUUCUAAAAGUACUGCAUUUUUUACUUUUUUUUAUGAUCAAGGAAAAGAUCACAACAGAGGAUUGAGCAUCA
B13: ENSG00000198589:be:win_4151|CDS|ENSG00000198589|bound_else_gene|NA|bound_elsewhere_windowed (ssRNA)
RNA: GGGAGUUCUACAGUCCGACGAUCCGGCUACACAUGAACUGGAAAAUAUUGAACCUACUCAAGGCCUUUCAAUAGAAGCCUCUGUGACAUUUUUGCAGAGGCUAAUUAGCCUUGUGGAUGUGCUUAUAUUUGCAAGUUCUCUUGCAACAGAGGAUUGAGCAUCA
B14: chr5:69350983:69352230:-|three_prime_utr|ENSG00000085231|control|control|control (ssRNA)
RNA: GGGAGUUCUACAGUCCGACGAUCCACAGCAUCCUACAAGGAAGAAAUCGUGCAUCAGCUGCCCAGUAAUAAACCAGAAGAGCUAGAAAAUAAUGUAGAUCAGAUCUUGAAAUGGAUUGAGCAGUGGAUCAAAGAUCAUAACUCCAACAGAGGAUUGAGCAUCA
B15: chrX:149581652:149582231:-|three_prime_utr|ENSG00000267978|control|control|control (ssRNA)
RNA: GGGAGUUCUACAGUCCGACGAUCCAAAUGUUCUUUUAAUGGUCAGUUUAAUGAACUUCACCAUCGAAGUUAAUGAAUGACAGUAGUCACACAUAUUGCUGUUUAUGUUAUUUAGGAGUAAGAUUCUUGCUUUUGAGUCACAUGCAACAGAGGAUUGAGCAUCA
B16: ENSG00000104231:stop:overlap|stop_codon|ENSG00000104231|stop_codon|NA|stop_codon (ssRNA)
RNA: GGGAGUUCUACAGUCCGACGAUCUCUUGGAAUAUCUUAAUGAUGAAGAACAAUUCUGUAAAAAUGUUGAAUCUUACUUGGAAUAGUCAUUCAAAGAUUCAAGUCAGAAAUCACAGGGAAAAUUCUAUUACAUGUUUAAGUCCACAACAGAGGAUUGAGCAUCA
B17: chr8:54147534:54147638:+|CDS|ENSG00000137547|unk|FALSE|unique (ssRNA)
RNA: GGGAGUUCUACAGUCCGACGAUCAAGUAUGGUUAUAUCUUACCUGAUAUCACUAAAGAUGAACUCUUCAAAAUGCUCUGUACUAGGAAGGAUCCAAGGCAGAUUUUCUUUGGUCUUGCUCCAGGAUGGGUGGUGAAUAUGGCCCAACAGAGGAUUGAGCAUCA
B18: chr12:98549714:98549829:+|3pUTR|ENSG00000120802|unk|total|mutant (ssRNA)
RNA: GGGAGUUCUACAGUCCGACGAUCGAAGAUGUAUAUUCCGACCAGCACACAAUUUUGAUUUCAAUCCGCCUUAUUCUAAUAUUCCGCUUUCCGAUCUUUCAUACACAUUUUCACGUACUUUGCAAUUGAGACCAGAAAGACUUGCAACAGAGGAUUGAGCAUCA
B19: chr1:168200228:168200338:+|3pUTR|ENSG00000143155|unk|FALSE|unique (ssRNA)
RNA: GGGAGUUCUACAGUCCGACGAUCUAUUUUCUGGAGUUAAAUUUGGAUGAUUUCUAAAUUAUCACAAAGUGGGACCUCAGCAGUAGUGAUGUGUGUGUCUCAUGAGCAGUGAGCACAGUCUGCAUUCAUCAUGAAACACUAUCUCAACAGAGGAUUGAGCAUCA
B20: chr11:112063736:112063838:+|3pUTR|ENSG00000150768|unk|FALSE|unique (ssRNA)
RNA: GGGAGUUCUACAGUCCGACGAUCGAGAGAAAAAAUUAACUAGGUUGCUACUUUAUUUGCCUAAAUACUUUUUUCUAUUUUGUUAGAUUUUGCCUUUCUUUUGGAAGGAAGGAGGCGAUAUUCUGGAUUAUAAAAAUGAAUUGGCAACAGAGGAUUGAGCAUCA
B21: chrX:101625945:101626046:+|CDS|ENSG00000102401|unk|total|mutant (ssRNA)
RNA: GGGAGUUCUACAGUCCGACGAUCAGGUUCACUUUUUUUCUUUUUAAAAGAAUUUCAAGUGUGUGCUGAUAAGGUUCUGGGAACCGAAAGUCACCAUGAUUUUUUGGUGAAAGUAAAAGUUGGAAAAUUCAUGGCCAAACUUGCCAACAGAGGAUUGAGCAUCA
B22: chr2:130346496:130346597:+|3pUTR|ENSG00000136718|unk|FALSE|unique (ssRNA)
RNA: GGGAGUUCUACAGUCCGACGAUCACUCAGUCAGGACAUGGACUUGGAACUCAGGAUGGGGCUGUCAUAGACAGACCCACCAGUAGGAACUGUCACAGAAUGGCCUGCUGAACUGGGAUGUGGAACUGUGGCGGGUGGAGAGGUCAACAGAGGAUUGAGCAUCA

Each binder was assayed against T1, UNK ZnF1-6 (called full-length) (assay: nsRBNS (natural sequence RNA bind-n-seq); RBNS binding buffer (assumed for nsRBNS): 25 mM Tris pH 7.5, 150 mM KCl, 3 mM MgCl2, 0.01% Triton X-100, 500 ug/ml BSA, 20 U/ml SUPERase-In, 4 C; UNK is unkempt and MSI1 is Musashi-1; names of the RNAs are library labels; protein concentration not given here; high values mean tight binding).
B1 showed a binding signal of 0.747 enrichment R. In the case of B2, the binding signal is reported as 1.22 enrichment R. Work on B3 yielded a binding signal of 0.351 enrichment R. For B4, the binding signal was 0.865 enrichment R. B5 gave a binding signal of 0.992 enrichment R. For B6, the binding signal was 1.75 enrichment R. Work on B7 yielded a binding signal of 0.799 enrichment R. Binder B8 has a binding signal of 1.38 enrichment R. B9 gave a binding signal of 0.602 enrichment R. Binder B10 has a binding signal of 0.624 enrichment R. B11 was tested, and the binding signal was 0.752 enrichment R. B12 was tested, and the binding signal was 0.471 enrichment R. For B13, the binding signal was 0.203 enrichment R. B14 was tested, and the binding signal was 0.585 enrichment R. Work on B15 yielded a binding signal of 0.441 enrichment R. With B16 the binding signal was 0.483 enrichment R. Work on B17 yielded a binding signal of 0.713 enrichment R. For B18, the binding signal was 0.888 enrichment R. In the case of B19, the binding signal is reported as 0.358 enrichment R. With B20 the binding signal was 0.698 enrichment R. B21 gave a binding signal of 0.312 enrichment R. For B22, the binding signal was 1.47 enrichment R.
